# Measurements as given in the supplement of paper PMC8728848.
# The other results are listed elsewhere or left out.
# Experiments:
# Assay in all cases: glycan array binding signal (z-score within array); higher = stronger binding
# Settings in all cases: glycan notation: IUPAC condensed, linker removed
# [1] = molecular target: Fuc(a1-2)Gal
# Procedure, shortened: (§1)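 Glycan array binding is given as a within-array Z-score, which can be read as non-binding when negative. The arrays, 3228 of them, came from the Consortium for Functional Glycomics database and were retained only where the protein sequence was available. Z-scores were averaged across arrays of the same protein sequence at different concentrations or buffers and across linkers.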
# [2] = molecular target: Fuc(a1-2)Gal(b1-3)GalNAc
# Procedure, shortened: as §1
# [3] = molecular target: Fuc(a1-2)Gal(b1-3)GalNAc(a1-3)[Fuc(a1-2)]Gal(b1-4)Glc
# Procedure, shortened: as §1
# [4] = molecular target: Fuc(a1-2)Gal(b1-3)GalNAc(a1-3)[Fuc(a1-2)]Gal(b1-4)GlcNAc
# Procedure, shortened: as §1
# [5] = molecular target: Fuc(a1-2)Gal(b1-3)GalNAc(b1-3)Gal
# Procedure, shortened: as §1
# [6] = molecular target: Fuc(a1-2)Gal(b1-3)GalNAc(b1-3)Gal(a1-4)Gal(b1-4)Glc
# Procedure, shortened: as §1
# [7] = molecular target: Fuc(a1-2)Gal(b1-3)GalNAc(b1-4)[Neu5Ac(a2-3)]Gal(b1-4)Glc
# Procedure, shortened: as §1
# [8] = molecular target: Fuc(a1-2)Gal(b1-3)GlcNAc
# Procedure, shortened: as §1
# [9] = molecular target: Fuc(a1-2)Gal(b1-3)GlcNAc(b1-2)Man(a1-3)[Fuc(a1-2)Gal(b1-3)GlcNAc(b1-2)Man(a1-6)]Man(b1-4)GlcNAc(b1-4)GlcNAc
# Procedure, shortened: as §1
# [10] = molecular target: Fuc(a1-2)Gal(b1-3)GlcNAc(b1-2)Man(a1-3)[Fuc(a1-2)Gal(b1-3)GlcNAc(b1-2)Man(a1-6)]Man(b1-4)GlcNAc(b1-4)[Fuc(a1-6)]GlcNAc
# Procedure, shortened: as §1
# [11] = molecular target: Fuc(a1-2)Gal(b1-3)GlcNAc(b1-3)Gal(b1-4)Glc
# Procedure, shortened: as §1
# [12] = molecular target: Fuc(a1-2)Gal(b1-3)GlcNAc(b1-3)GalNAc
# Procedure, shortened: as §1
# [13] = molecular target: Fuc(a1-2)Gal(b1-3)GlcNAc(b1-3)[Fuc(a1-2)Gal(b1-3)GlcNAc(b1-6)]GalNAc
# Procedure, shortened: as §1
# [14] = molecular target: Fuc(a1-2)Gal(b1-3)GlcNAc(b1-3)[Gal(b1-4)GlcNAc(b1-6)]Gal(b1-4)Glc
# Procedure, shortened: as §1
# [15] = molecular target: Fuc(a1-2)Gal(b1-3)GlcNAc(b1-3)[Neu5Ac(a2-6)Gal(b1-4)GlcNAc(b1-6)]Gal(b1-4)Glc
# Procedure, shortened: as §1
# [16] = molecular target: Fuc(a1-2)Gal(b1-3)GlcNAc6S
# Procedure, shortened: as §1
# [17] = molecular target: Fuc(a1-2)Gal(b1-3)[Fuc(a1-4)]GlcNAc
# Procedure, shortened: as §1
# [18] = molecular target: Fuc(a1-2)Gal(b1-3)[Fuc(a1-4)]GlcNAc(b1-2)Man(a1-3)[Fuc(a1-2)Gal(b1-3)[Fuc(a1-4)]GlcNAc(b1-2)Man(a1-3)]Man(b1-4)GlcNAc(b1-4)GlcNAc
# Procedure, shortened: as §1
# [19] = molecular target: Fuc(a1-2)Gal(b1-3)[Fuc(a1-4)]GlcNAc(b1-2)Man(a1-3)[Fuc(a1-2)Gal(b1-3)[Fuc(a1-4)]GlcNAc(b1-2)Man(a1-6)]Man(b1-4)GlcNAc(b1-4)[Fuc(a1-6)]GlcNAc(b1-4)[Fuc(a1-6)]GlcNAc
# Procedure, shortened: as §1
# [20] = molecular target: Fuc(a1-2)Gal(b1-3)[Fuc(a1-4)]GlcNAc(b1-3)[Fuc(a1-3)[Gal(b1-4)]GlcNAc(b1-6)]Gal(b1-4)Glc
# Procedure, shortened: as §1
# [21] = molecular target: Fuc(a1-2)Gal(b1-3)[Fuc(a1-4)]GlcNAc(b1-3)[Gal(b1-4)GlcNAc(b1-6)]Gal(b1-4)Glc
# Procedure, shortened: as §1
# [22] = molecular target: Fuc(a1-2)Gal(b1-4)Fuc(a1-3)]GlcNAc(b1-2)Man(a1-3)[Fuc(a1-2)Gal(b1-4)[Fuc(a1-3)]GlcNAc(b1-2)Man(a1-6)]Man(b1-4)GlcNAc(b1-4)GlcNAc
# Procedure, shortened: as §1
# [23] = molecular target: Fuc(a1-2)Gal(b1-4)Glc
# Procedure, shortened: as §1
# [24] = molecular target: Fuc(a1-2)Gal(b1-4)Glc6S
# Procedure, shortened: as §1
# [25] = molecular target: Fuc(a1-2)Gal(b1-4)GlcNAc
# Procedure, shortened: as §1
# [26] = molecular target: Fuc(a1-2)Gal(b1-4)GlcNAc(b1-2)Man
# Procedure, shortened: as §1
# [27] = molecular target: Fuc(a1-2)Gal(b1-4)GlcNAc(b1-2)Man(a1-3)[Fuc(a1-2)Gal(b1-4)GlcNAc(b1-2)Man(a1-6)]Man(b1-4)GlcNAc(b1-4)GlcNAc
# Procedure, shortened: as §1
# [28] = molecular target: Fuc(a1-2)Gal(b1-4)GlcNAc(b1-2)Man(a1-3)[Fuc(a1-2)Gal(b1-4)GlcNAc(b1-2)Man(a1-6)]Man(b1-4)GlcNAc(b1-4)[Fuc(a1-6)]GlcNAc
# Procedure, shortened: as §1
# [29] = molecular target: Fuc(a1-2)Gal(b1-4)GlcNAc(b1-2)[Fuc(a1-2)Gal(b1-4)GlcNAc(b1-4)]Man(a1-3)[Fuc(a1-2)Gal(b1-4)GlcNAc(b1-2)Man(a1-6)]Man(b1-4)GlcNAc(b1-4)GlcNAc
# Procedure, shortened: as §1
# [30] = molecular target: Fuc(a1-2)Gal(b1-4)GlcNAc(b1-3)Gal(b1-4)GlcNAc
# Procedure, shortened: as §1
binder,measurement,setting,value
"Langerin K313I (Homo sapiens), Q9UJ71 (protein) STLNAQIPELKSDLEKASALNTKIRALQGSLENMSKLLKRQNDILQVVSQGWKYFKGNFYYFSLIPKTWYSAEQFCVSRNSHLTSVTSESEQEFLYKTAGGLIYWIGLTKAGMEGDWSWVDDTPFNKVQSARFWIPGEPNNAGNNEHCGNIKAPSLQAWNDAPCDITFLFICKRPYVPSEP",glycan array binding signal (z-score),[1],-0.316
same,glycan array binding signal (z-score),[2],-0.168
same,glycan array binding signal (z-score),[3],-0.158
same,glycan array binding signal (z-score),[4],-0.297
same,glycan array binding signal (z-score),[5],-0.308
same,glycan array binding signal (z-score),[6],-0.375
same,glycan array binding signal (z-score),[7],-0.347
same,glycan array binding signal (z-score),[8],-0.355
same,glycan array binding signal (z-score),[9],0.11
same,glycan array binding signal (z-score),[10],0.195
same,glycan array binding signal (z-score),[11],-0.379
same,glycan array binding signal (z-score),[12],-0.129
same,glycan array binding signal (z-score),[13],-0.021
same,glycan array binding signal (z-score),[14],-0.365
same,glycan array binding signal (z-score),[15],-0.168
same,glycan array binding signal (z-score),[16],0.033
same,glycan array binding signal (z-score),[17],-0.272
same,glycan array binding signal (z-score),[18],0.275
same,glycan array binding signal (z-score),[19],0.377
same,glycan array binding signal (z-score),[20],-0.289
same,glycan array binding signal (z-score),[21],-0.34
same,glycan array binding signal (z-score),[22],0.164
same,glycan array binding signal (z-score),[23],-0.149
same,glycan array binding signal (z-score),[24],-0.294
same,glycan array binding signal (z-score),[25],-0.253
same,glycan array binding signal (z-score),[26],-0.032
same,glycan array binding signal (z-score),[27],-0.009
same,glycan array binding signal (z-score),[28],0.249
same,glycan array binding signal (z-score),[29],0.308
same,glycan array binding signal (z-score),[30],0.07
